Test results taken from PubChem BioAssay AID686979 (National Center for Advancing Translational Sciences (NCATS), 2013).
The whole screen tested about 420,000 compounds, of which about 50,000 (12%) were called active. Roughly 26% stayed inconclusive and do not appear here. Calls follow the shape of the dose curve; as a rule, active = well fitted inhibition curve with a large enough effect; inconclusive = small, poorly fitted or top-dose-only effect; inactive = flat fitted curve, though single readings scatter. Only a part is listed here, and it is no random draw. More than one record can exist for a structure, and the calls need not agree.

Test: qHTS for Inhibitors of human tyrosyl-DNA phosphodiesterase 1 (TDP1): qHTS in cells in presence of CPT; also: nearly all actives have a fitted effect of over 55% in size
Details: chicken DT40 Tdp1-/-;hTDP1 cells + 20 nM CPT, ATP luminescence, 48 h; series mostly up to 46.2 µM; activity change, negative = growth inhibition: at the top concentration
How it was run: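 Cell growth measured by CellTiter-Glo luminescence after a minimum 48 h, 37 C compound exposure with 20 nM CPT in Tdp1-knockout DT40 cells stably expressing hTDP1, seeded 400/well; qHTS titration format.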
% is scaled to controls: 0 for no effect and ±100 for the full control effect; potency is read from the fitted curve at half-maximal effect.

| Compound | activity change, negative = growth inhibition | Potency |
| --- | --- | --- |
| O=C(CCCN1CCC(O)(c2ccc(Cl)cc2)CC1)c1ccc(F)cc1 | inactive: -3.25% |  |
| COC(=O)[C@@H](N)CS | inactive: -8.64% |  |
| CCCCNC(=O)CCn1c(=O)c2ccccc2n(Cc2cc(C)ccc2C)c1=O | inactive: -3.9% |  |
| COc1ccc(C2C(C#N)=C3NC(=O)c4c(sc5c4CCCCC5)N3C3=C2C(=O)CC(C)(C)C3)cc1 (stereo not given) |  | active: 16.4 µM |
| COc1ccc(OC)c(C2C(C(N)=O)=C(C)Nc3nc(-c4cccc(Cl)c4)nn32)c1 (stereo not given) | inactive: -10.3% |  |
| COc1ccc(NS(=O)(=O)c2ccc(C(=O)N3CCCCCC3)cc2)cc1 |  | active: 10.3 µM |
| O=C(NCc1ccccc1)C1=C[C@@H](c2ccc3c(c2)OCO3)C[C@@H](OCCCCO)O1 | inactive: -13.3% |  |
| c1cncc(-c2nnc(-c3cccnc3)nn2)c1 |  | active: 2.91 µM |
| Cc1cccc(C)c1OCCOCCN1CCN(C)CC1 | inactive: -10.9% |  |
| O=C1NC[C@H](c2ccccc2)OC(=O)[C@@H](Cc2ccc(F)cc2)CC/C=C/C[C@H]1CC(=O)N(CCO)Cc1ccccc1 |  | active: 13 µM |
